In a collection of fitness landscapes (doi:10.1126/science.1257360) one finds enrichment ratio data, which are given here for 195 variants.

Some of the results follow.

The chains are these.
B1: PhoQ; a variant is named by its letters at X, in order, P23837 (parent)
chain: MKKLLRLFFPLSLRVRFLLATAAVVLVLSLAYGMVALIGYSVSFDKTTFRLLRGESNLFYTLAKWENNKLHVELPENIDKQSPTMTLIYDENGQLLWAQRDVPWLMKMIQPDWLKSNGFHEIEADVNDTSLLLSGDHSIQQQLQEVREDDDDAEMTHSVAVNVYPATSRMPKLTIVVVDTIPVELKSSYMVWSWFIYVLSANLLLVIPLLWVAAWWSLRPIEALAKEVRELEEHNRELLNPATTRELTSLVRNLNRLLKSERERYDKYRTTLTDLTHSLKTPLXXLQXXLRSLRSEKMSVSDAEPVMLEQISRISQQIGYYLHRASMRGGTLLSRELHPVAPLLDNLTSALNKVYQRKGVNISLDISPEISFVGEQNDFVEVMGNVLDNACKYCLEFVEISARQTDEHLYIVVEDDGPGIPLSKREVIFDRGQRVDTLRPGQGVGLAVAREITEQYEGKIVAGESMLGGARMEVIFGRQHSAPKDE

The assay covers variants of B1. Nature of the assay: enrichment ratio after two sorts for PhoP signalling (ratio (wild type AVST 3.29)); higher = more functional. The settings on record: with PhoP (E. coli).
On to GFSE, for which the enrichment ratio is not above 0.25.

On to HWVS, for which the enrichment ratio is not above 0.25.

On to DVYP, for which the enrichment ratio is not above 0.25.

Take GKEW: the enrichment ratio is not above 0.25.

For IFFW, the enrichment ratio is not above 0.25.

Regarding FRFI, the enrichment ratio was not above 0.25.

Turning to TFCF, the enrichment ratio is not above 0.25.

Regarding VDPS, the enrichment ratio was not above 0.25.

As for FGQY, the enrichment ratio was not above 0.25.

Regarding DKLN, the enrichment ratio was not above 0.25.

Turning to YWTK, the enrichment ratio is not above 0.25.

Consider FLCE, for which the enrichment ratio was not above 0.25.

For EALR, the enrichment ratio was not above 0.25.

Regarding QKSV, the enrichment ratio is not above 0.25.

As for NGWF, the enrichment ratio was not above 0.25.

With VHKR, the enrichment ratio was not above 0.25.

Turning to DFNG, the enrichment ratio is not above 0.25.

Consider TKKD, for which the enrichment ratio is not above 0.25.

Turning to NFWR, the enrichment ratio is not above 0.25.

Consider QQWS, for which the enrichment ratio is 9.54.

Turning to VFAE, the enrichment ratio is not above 0.25.

Turning to MGWT, the enrichment ratio came to 4.51.

With HLKG, the enrichment ratio is not above 0.25.

As for DEFN, the enrichment ratio is not above 0.25.

As to WTHW, the enrichment ratio is not above 0.25.

As for KLHG, the enrichment ratio was not above 0.25.

Take SAQD: the enrichment ratio was not above 0.25.

As for EILY, the enrichment ratio is not above 0.25.

Turning to FRPN, the enrichment ratio is not above 0.25.

Regarding QALR, the enrichment ratio was not above 0.25.

Turning to AEGD, the enrichment ratio turned out to be 0.253.

As for HKLA, the enrichment ratio is not above 0.25.

In the case of TQMC, the enrichment ratio stood at 5.9.

Regarding LTAF, the enrichment ratio is not above 0.25.

As for ANNW, the enrichment ratio was not above 0.25.

In the case of WKNQ, the enrichment ratio was not above 0.25.

Consider SFDN, for which the enrichment ratio was not above 0.25.

As for DCCN, the enrichment ratio is not above 0.25.

As to DNDK, the enrichment ratio is not above 0.25.

For IITS, the enrichment ratio was not above 0.25.

Take GYCI: the enrichment ratio is not above 0.25.

Consider INVF, for which the enrichment ratio is not above 0.25.

With YKVP, the enrichment ratio is not above 0.25.

As to FREY, the enrichment ratio was not above 0.25.

For the variant EYEF, the enrichment ratio was not above 0.25.

For KLNY, the enrichment ratio was not above 0.25.

On to MRFR, for which the enrichment ratio is not above 0.25.

As to SVPI, the enrichment ratio is 5.93.

As for TMEI, the enrichment ratio came out at 17.7.

As to GQMG, the enrichment ratio was not above 0.25.

Turning to MIYK, the enrichment ratio is not above 0.25.

Regarding QHFK, the enrichment ratio is not above 0.25.

Take PRCK: the enrichment ratio is not above 0.25.

Consider NYSW, for which the enrichment ratio is not above 0.25.

Take WNAI: the enrichment ratio is not above 0.25.

Consider NEYM, for which the enrichment ratio was not above 0.25.

Consider YGGG, for which the enrichment ratio is not above 0.25.

QFEY: the enrichment ratio is not above 0.25.

Consider PPSY, for which the enrichment ratio was not above 0.25.

Consider GEGR, for which the enrichment ratio was not above 0.25.

As to IYIP, the enrichment ratio is not above 0.25.

Take QIYP: the enrichment ratio is not above 0.25.

As for GVGW, the enrichment ratio was not above 0.25.

VSGH: the enrichment ratio was not above 0.25.

Take EHIS: the enrichment ratio was not above 0.25.

Take YPFH: the enrichment ratio was not above 0.25.

On to DSIW, for which the enrichment ratio is not above 0.25.

In the case of DFDP, the enrichment ratio was not above 0.25.

With KDRP, the enrichment ratio was not above 0.25.

For RRCG, the enrichment ratio is not above 0.25.

For the variant PMMY, the enrichment ratio was not above 0.25.

AWTN: the enrichment ratio was not above 0.25.

Regarding WHMK, the enrichment ratio is not above 0.25.

As to IKMH, the enrichment ratio was not above 0.25.

With FPFK, the enrichment ratio is not above 0.25.

Regarding RVFT, the enrichment ratio was not above 0.25.

For the variant AQIF, the enrichment ratio came to 10.1.

With KPYG, the enrichment ratio was not above 0.25.

As to SVSY, the enrichment ratio worked out at 6.3.

AFHW: the enrichment ratio is not above 0.25.

For the variant VHWT, the enrichment ratio is not above 0.25.

Regarding VVSP, the enrichment ratio was not above 0.25.

For the variant SYLA, the enrichment ratio was found to be 0.931.

Turning to YHSY, the enrichment ratio was not above 0.25.

DKIR: the enrichment ratio was not above 0.25.

On to KSED, for which the enrichment ratio is not above 0.25.

As for MDWQ, the enrichment ratio is not above 0.25.

With WKVY, the enrichment ratio is not above 0.25.

Consider DCGD, for which the enrichment ratio is not above 0.25.

In the case of VWDF, the enrichment ratio was not above 0.25.

For the variant GHTH, the enrichment ratio was not above 0.25.

In the case of SCQT, the enrichment ratio was not above 0.25.

Turning to NQGY, the enrichment ratio is not above 0.25.

ICSM: the enrichment ratio amounted to 3.87.

FQCP: the enrichment ratio is not above 0.25.

NNGG: the enrichment ratio is not above 0.25.

Consider VRQL, for which the enrichment ratio is not above 0.25.

As to DAKI, the enrichment ratio was not above 0.25.

For the variant FLWR, the enrichment ratio is not above 0.25.

With WSFA, the enrichment ratio was not above 0.25.

Turning to LAWV, the enrichment ratio is not above 0.25.

With GNNQ, the enrichment ratio was not above 0.25.

In the case of MERM, the enrichment ratio is not above 0.25.

On to PECM, for which the enrichment ratio is not above 0.25.

As to GSTQ, the enrichment ratio came out at 0.733.

As for YGSG, the enrichment ratio was not above 0.25.

For QFER, the enrichment ratio is not above 0.25.

As for RTGW, the enrichment ratio is not above 0.25.

As to IEEF, the enrichment ratio was not above 0.25.

As to LIAI, the enrichment ratio was not above 0.25.

Turning to QNRS, the enrichment ratio was not above 0.25.

With ACDS, the enrichment ratio turned out to be 0.253.

As to NQQI, the enrichment ratio was not above 0.25.

As for ENCH, the enrichment ratio was not above 0.25.

On to GAKS, for which the enrichment ratio was not above 0.25.

For the variant TIPV, the enrichment ratio is not above 0.25.

Take RLVY: the enrichment ratio is not above 0.25.

For RTQD, the enrichment ratio is not above 0.25.

With CLQL, the enrichment ratio was not above 0.25.

With WMFV, the enrichment ratio is not above 0.25.

DKIT: the enrichment ratio was not above 0.25.

In the case of GEHL, the enrichment ratio is not above 0.25.

For the variant VTMM, the enrichment ratio is 12.1.

As for MHWG, the enrichment ratio is not above 0.25.

Turning to FIAT, the enrichment ratio is not above 0.25.

Consider YKCY, for which the enrichment ratio amounted to 0.38.

In the case of INYM, the enrichment ratio was not above 0.25.

Turning to FQRE, the enrichment ratio was not above 0.25.

QVLA: the enrichment ratio was not above 0.25.

Take TQCQ: the enrichment ratio was 27.8.

WETC: the enrichment ratio is not above 0.25.

As to TMAL, the enrichment ratio was 14.

For the variant RRQR, the enrichment ratio is not above 0.25.

On to RMGG, for which the enrichment ratio was not above 0.25.

As for YLCR, the enrichment ratio is not above 0.25.

On to FEIM, for which the enrichment ratio amounted to 3.82.

In the case of AAEK, the enrichment ratio is not above 0.25.

As to PHAN, the enrichment ratio was not above 0.25.

Turning to FKTC, the enrichment ratio was not above 0.25.

Take DVLC: the enrichment ratio was not above 0.25.

With MSEG, the enrichment ratio is not above 0.25.

Turning to TWIW, the enrichment ratio was not above 0.25.

Take VGNA: the enrichment ratio was not above 0.25.

For KPHR, the enrichment ratio is not above 0.25.

For the variant PDVN, the enrichment ratio was not above 0.25.

For YRRR, the enrichment ratio is not above 0.25.

Turning to IQCT, the enrichment ratio is not above 0.25.

On to ENCY, for which the enrichment ratio is not above 0.25.

With FSKV, the enrichment ratio was not above 0.25.

As for VEHQ, the enrichment ratio was not above 0.25.

With SHRR, the enrichment ratio was not above 0.25.

Take NNGF: the enrichment ratio is not above 0.25.

On to RLQH, for which the enrichment ratio was not above 0.25.

With LQMQ, the enrichment ratio was not above 0.25.

Regarding VLPI, the enrichment ratio was not above 0.25.

In the case of KSIA, the enrichment ratio is not above 0.25.

Consider GERW, for which the enrichment ratio is not above 0.25.

LAYT: the enrichment ratio was not above 0.25.

Regarding KQTI, the enrichment ratio was not above 0.25.

On to DNRP, for which the enrichment ratio was not above 0.25.

Consider PGTQ, for which the enrichment ratio is not above 0.25.

In the case of GALM, the enrichment ratio amounted to 12.1.

Take FLKF: the enrichment ratio was not above 0.25.

For the variant YHRE, the enrichment ratio was not above 0.25.

SWAQ: the enrichment ratio was not above 0.25.

With VRMD, the enrichment ratio was not above 0.25.

On to THLR, for which the enrichment ratio is not above 0.25.

As to DSGV, the enrichment ratio is not above 0.25.

For NIEH, the enrichment ratio is not above 0.25.

For TAML, the enrichment ratio was 25.8.

HEFE: the enrichment ratio was not above 0.25.

As to FSCT, the enrichment ratio was not above 0.25.

With YAYM, the enrichment ratio is not above 0.25.

As to LPWC, the enrichment ratio was not above 0.25.

In the case of WHCM, the enrichment ratio was not above 0.25.

Regarding SPLA, the enrichment ratio was not above 0.25.

In the case of ISVA, the enrichment ratio is not above 0.25.

For QFGH, the enrichment ratio is not above 0.25.

For the variant HGPP, the enrichment ratio is not above 0.25.

Turning to VPQT, the enrichment ratio is not above 0.25.

As for RLQM, the enrichment ratio was not above 0.25.

For YSLL, the enrichment ratio stood at 11.4.

As for EIYF, the enrichment ratio was not above 0.25.

For MYWI, the enrichment ratio is not above 0.25.

As for PYPY, the enrichment ratio was not above 0.25.

In the case of QMYW, the enrichment ratio is not above 0.25.

In the case of VHLS, the enrichment ratio was not above 0.25.

Take EKLH: the enrichment ratio is not above 0.25.

For MGIH, the enrichment ratio worked out at 1.49.

Take DHGT: the enrichment ratio is not above 0.25.

PQCT: the enrichment ratio is not above 0.25.

For the variant EDKY, the enrichment ratio was not above 0.25.

For ENQF, the enrichment ratio was not above 0.25.

As for WERP, the enrichment ratio was not above 0.25.

In the case of IDSL, the enrichment ratio is 0.274.
